# Laboratory results published in the supplement of paper PMC8728848.
# This is one part of the list.
# B1: AFL (Aspergillus fumigatus), Q4WW81 (protein)
# chain: STPGAQQVLFRTGIAAVNLTNHLRVYFQDVYGSIRESLYEGSWANGTEKNVIGNAKLGSPVAATSKELKHIRVYTLTEGNTLQEFAYDSGTGWYNGGLGGAKFQVAPYSRIAAVFLAGTDALQLRIYAQKPDNTIQEYMWNGDGWKEGTNLGGALPGTGIGATSFRYTDYNGPSIRIWFQTDDLKLVQRAYDPHKGWYPDLVTIFDRAPPRTAIAATSFGAGNSSIYMRIYFVNSDNTIWQVCWDHGKGYHDKGTITPVIQGSEVAIISWGSFANNGPDLRLYFQNGTYISAVSEWVWNRAHGSQLGRSALPPA
# Assays:
# Experiment in all cases: glycan array binding signal (z-score within array); higher = stronger binding
# Conditions in all cases: glycan notation: IUPAC condensed, linker removed
# Fuc(a1-2)Gal = target: Fuc(a1-2)Gal
# Procedure, shortened: (§1)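 The binding signal is a Z-score computed within each array and averaged over linkers. Arrays of the same protein sequence at different concentrations or buffers were also averaged together. Data originate from 3228 arrays in the Consortium for Functional Glycomics database, kept only where the protein sequence was available.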
# Fuc(a1-2)Gal(b1-3)GalNAc = target: Fuc(a1-2)Gal(b1-3)GalNAc
# Procedure, shortened: as §1
# [1] = target: Fuc(a1-2)Gal(b1-3)GalNAc(a1-3)[Fuc(a1-2)]Gal(b1-4)Glc
# Procedure, shortened: as §1
# [2] = target: Fuc(a1-2)Gal(b1-3)GalNAc(a1-3)[Fuc(a1-2)]Gal(b1-4)GlcNAc
# Procedure, shortened: as §1
# [3] = target: Fuc(a1-2)Gal(b1-3)GalNAc(b1-3)Gal
# Procedure, shortened: as §1
# [4] = target: Fuc(a1-2)Gal(b1-3)GalNAc(b1-3)Gal(a1-4)Gal(b1-4)Glc
# Procedure, shortened: as §1
# [5] = target: Fuc(a1-2)Gal(b1-3)GalNAc(b1-4)[Neu5Ac(a2-3)]Gal(b1-4)Glc
# Procedure, shortened: as §1
# Fuc(a1-2)Gal(b1-3)GlcNAc = target: Fuc(a1-2)Gal(b1-3)GlcNAc
# Procedure, shortened: as §1
# [6] = target: Fuc(a1-2)Gal(b1-3)GlcNAc(b1-2)Man(a1-3)[Fuc(a1-2)Gal(b1-3)GlcNAc(b1-2)Man(a1-6)]Man(b1-4)GlcNAc(b1-4)GlcNAc
# Procedure, shortened: as §1
# [7] = target: Fuc(a1-2)Gal(b1-3)GlcNAc(b1-2)Man(a1-3)[Fuc(a1-2)Gal(b1-3)GlcNAc(b1-2)Man(a1-6)]Man(b1-4)GlcNAc(b1-4)[Fuc(a1-6)]GlcNAc
# Procedure, shortened: as §1
# [8] = target: Fuc(a1-2)Gal(b1-3)GlcNAc(b1-3)Gal(b1-4)Glc
# Procedure, shortened: as §1
# [9] = target: Fuc(a1-2)Gal(b1-3)GlcNAc(b1-3)GalNAc
# Procedure, shortened: as §1
# [10] = target: Fuc(a1-2)Gal(b1-3)GlcNAc(b1-3)[Fuc(a1-3)[Gal(b1-4)]GlcNAc(b1-6)]Gal(b1-4)Glc
# Procedure, shortened: as §1
# [11] = target: Fuc(a1-2)Gal(b1-3)GlcNAc(b1-3)[Gal(b1-4)GlcNAc(b1-6)]Gal(b1-4)Glc
# Procedure, shortened: as §1
# [12] = target: Fuc(a1-2)Gal(b1-3)GlcNAc(b1-3)[Neu5Ac(a2-6)Gal(b1-4)GlcNAc(b1-6)]Gal(b1-4)Glc
# Procedure, shortened: as §1
# [13] = target: Fuc(a1-2)Gal(b1-3)[Fuc(a1-4)]GlcNAc
# Procedure, shortened: as §1
# [14] = target: Fuc(a1-2)Gal(b1-3)[Fuc(a1-4)]GlcNAc(b1-2)Man(a1-3)[Fuc(a1-2)Gal(b1-3)[Fuc(a1-4)]GlcNAc(b1-2)Man(a1-6)]Man(b1-4)GlcNAc(b1-4)GlcNAc
# Procedure, shortened: as §1
# [15] = target: Fuc(a1-2)Gal(b1-3)[Fuc(a1-4)]GlcNAc(b1-3)[Fuc(a1-3)[Gal(b1-4)]GlcNAc(b1-6)]Gal(b1-4)Glc
# Procedure, shortened: as §1
# [16] = target: Fuc(a1-2)Gal(b1-3)[Fuc(a1-4)]GlcNAc(b1-3)[Gal(b1-4)GlcNAc(b1-6)]Gal(b1-4)Glc
# Procedure, shortened: as §1
# Fuc(a1-2)Gal(b1-4)Glc = target: Fuc(a1-2)Gal(b1-4)Glc
# Procedure, shortened: as §1
# Fuc(a1-2)Gal(b1-4)Glc6S = target: Fuc(a1-2)Gal(b1-4)Glc6S
# Procedure, shortened: as §1
# Fuc(a1-2)Gal(b1-4)GlcNAc = target: Fuc(a1-2)Gal(b1-4)GlcNAc
# Procedure, shortened: as §1
# [17] = target: Fuc(a1-2)Gal(b1-4)GlcNAc(b1-2)Man(a1-3)[Fuc(a1-2)Gal(b1-4)GlcNAc(b1-2)Man(a1-6)]Man(b1-4)GlcNAc(b1-4)GlcNAc
# Procedure, shortened: as §1
# [18] = target: Fuc(a1-2)Gal(b1-4)GlcNAc(b1-2)Man(a1-3)[Fuc(a1-2)Gal(b1-4)GlcNAc(b1-2)Man(a1-6)]Man(b1-4)GlcNAc(b1-4)[Fuc(a1-6)]GlcNAc
# Procedure, shortened: as §1
# [19] = target: Fuc(a1-2)Gal(b1-4)GlcNAc(b1-2)[Fuc(a1-2)Gal(b1-4)GlcNAc(b1-4)]Man(a1-3)[Fuc(a1-2)Gal(b1-4)GlcNAc(b1-2)Man(a1-6)]Man(b1-4)GlcNAc(b1-4)GlcNAc
# Procedure, shortened: as §1
# [20] = target: Fuc(a1-2)Gal(b1-4)GlcNAc(b1-3)Gal(b1-4)GlcNAc
# Procedure, shortened: as §1
# [21] = target: Fuc(a1-2)Gal(b1-4)GlcNAc(b1-3)Gal(b1-4)GlcNAc(b1-3)Gal(b1-4)GlcNAc
# Procedure, shortened: as §1
# [22] = target: Fuc(a1-2)Gal(b1-4)GlcNAc(b1-3)GalNAc
# Procedure, shortened: as §1
# [23] = target: Fuc(a1-2)Gal(b1-4)GlcNAc(b1-3)[Fuc(a1-2)Gal(b1-4)GlcNAc(b1-6)]GalNAc
# Procedure, shortened: as §1
# [24] = target: Fuc(a1-2)Gal(b1-4)GlcNAc6S
# Procedure, shortened: as §1
binder,measurement,setting,value
B1,glycan array binding signal (z-score),Fuc(a1-2)Gal,3
same,glycan array binding signal (z-score),Fuc(a1-2)Gal(b1-3)GalNAc,-0.12
same,glycan array binding signal (z-score),[1],-0.201
same,glycan array binding signal (z-score),[2],-0.269
same,glycan array binding signal (z-score),[3],-0.382
same,glycan array binding signal (z-score),[4],0.18
same,glycan array binding signal (z-score),[5],-0.377
same,glycan array binding signal (z-score),Fuc(a1-2)Gal(b1-3)GlcNAc,0.189
same,glycan array binding signal (z-score),[6],-0.22
same,glycan array binding signal (z-score),[7],-0.012
same,glycan array binding signal (z-score),[8],0.571
same,glycan array binding signal (z-score),[9],-0.347
same,glycan array binding signal (z-score),[10],1.3
same,glycan array binding signal (z-score),[11],0.28
same,glycan array binding signal (z-score),[12],-0.227
same,glycan array binding signal (z-score),[13],1.21
same,glycan array binding signal (z-score),[14],-0.324
same,glycan array binding signal (z-score),[15],1.22
same,glycan array binding signal (z-score),[16],0.175
same,glycan array binding signal (z-score),Fuc(a1-2)Gal(b1-4)Glc,2.34
same,glycan array binding signal (z-score),Fuc(a1-2)Gal(b1-4)Glc6S,3.64
same,glycan array binding signal (z-score),Fuc(a1-2)Gal(b1-4)GlcNAc,2.94
same,glycan array binding signal (z-score),[17],2.23
same,glycan array binding signal (z-score),[18],0.564
same,glycan array binding signal (z-score),[19],0.439
same,glycan array binding signal (z-score),[20],2.64
same,glycan array binding signal (z-score),[21],3.04
same,glycan array binding signal (z-score),[22],-0.167
same,glycan array binding signal (z-score),[23],2.44
same,glycan array binding signal (z-score),[24],3.17
